According to paper PMC4336329 (PLoS ONE, 2015):
Screen size: about 310,000 compounds; about 14,000 (4.5%) showed an effect of 50% or more. The effect is printed as a negative number. This is one part of the list.

biological target: human ether-à-go-go-related gene (hERG) potassium channel (human, UniProt Q12809); test: primary screen, population patch clamp on CHO cells stably expressing hERG
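Also: peak tail current of the secondary pulse compared with the same well before compound.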

Sequence of human ether-à-go-go-related gene (hERG) potassium channel (Q12809 whole entry, looked up): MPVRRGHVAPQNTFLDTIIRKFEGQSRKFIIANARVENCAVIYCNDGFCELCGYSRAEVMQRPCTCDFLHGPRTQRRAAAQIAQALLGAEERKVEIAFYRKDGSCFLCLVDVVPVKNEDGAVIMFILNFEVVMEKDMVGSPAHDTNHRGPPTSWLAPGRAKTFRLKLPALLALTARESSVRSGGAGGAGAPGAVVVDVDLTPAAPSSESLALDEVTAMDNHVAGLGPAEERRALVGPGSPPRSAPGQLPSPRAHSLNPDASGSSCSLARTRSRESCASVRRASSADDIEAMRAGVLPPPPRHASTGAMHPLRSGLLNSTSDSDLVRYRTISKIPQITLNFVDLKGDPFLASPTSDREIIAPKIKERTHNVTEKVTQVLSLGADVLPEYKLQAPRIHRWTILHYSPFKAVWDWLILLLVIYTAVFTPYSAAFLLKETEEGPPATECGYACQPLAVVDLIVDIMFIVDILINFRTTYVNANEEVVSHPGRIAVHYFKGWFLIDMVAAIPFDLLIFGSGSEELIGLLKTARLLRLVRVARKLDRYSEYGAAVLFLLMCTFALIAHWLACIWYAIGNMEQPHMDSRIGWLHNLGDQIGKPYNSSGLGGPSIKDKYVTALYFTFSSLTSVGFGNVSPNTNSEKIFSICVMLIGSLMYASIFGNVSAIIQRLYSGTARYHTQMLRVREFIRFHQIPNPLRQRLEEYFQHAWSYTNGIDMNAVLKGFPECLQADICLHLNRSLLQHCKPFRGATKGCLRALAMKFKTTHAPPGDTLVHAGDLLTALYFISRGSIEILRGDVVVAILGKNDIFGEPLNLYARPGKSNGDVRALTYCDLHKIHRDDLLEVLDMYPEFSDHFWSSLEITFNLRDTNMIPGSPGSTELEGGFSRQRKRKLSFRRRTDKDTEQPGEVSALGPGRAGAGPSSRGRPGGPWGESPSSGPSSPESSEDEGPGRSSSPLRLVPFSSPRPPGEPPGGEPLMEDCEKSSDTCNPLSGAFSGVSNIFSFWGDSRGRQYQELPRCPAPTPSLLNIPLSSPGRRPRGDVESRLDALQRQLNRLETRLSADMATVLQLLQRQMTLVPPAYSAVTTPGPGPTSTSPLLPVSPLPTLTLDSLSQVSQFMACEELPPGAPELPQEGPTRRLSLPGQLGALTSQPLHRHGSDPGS

| Compound | hERG current change (%, negative = inhibition) at 10uM [%] |
| --- | --- |
| Cc1ccc(NC(=O)[C@H](NC(=O)[C@@H]2Cc3ccccc3CN2)c2ccccc2)c(C)c1 | -60.7 |
| CN1CCN(C(=O)c2ccc3c(c2)NC(=O)/C(=C/c2ccccc2)S3)CC1 | -16 |
| O=C(CNC(=O)C1CCCCC1)NC1=NCCS1 | 18.6 |
| CCCCC(=O)Nc1ccc(C(=O)NNC(=O)CCCOc2ccc(Cl)cc2Cl)cc1 | 7.25 |
| COC(=O)C(Cc1ccc(OC(=O)c2ccccc2C)cc1)N1Cc2ccccc2C1=O (stereo not drawn) | 1.91 |
| Cc1ncc([N+](=O)[O-])n1CCOC(=O)c1ccc(Br)cc1 | -35.5 |
| CCN(CC(=O)NCc1cccs1)C(=O)c1cccc(S(=O)(=O)Nc2cccc(C)c2)c1 | -38.4 |
| Cc1ccc2c(c1)c1c(n2CC(O)CNC2CCCC2)CCCC1.O=C(O)C(=O)O (stereo not drawn) | -13.1 |
| CC1(C)Cc2[nH]c3ccccc3c2C(C)(C)N1.Cl | 15.3 |
| [Cl-].c1ccc(C[n+]2c(-c3ccccc3)csc2Nc2ccccc2)cc1 | 19.6 |
| COc1ccc(OC)c(CN2CCCC(CCC(=O)N(C)CCc3ccccn3)C2)c1 (stereo not drawn) | -22.3 |
| O=C(C1CCCN(S(=O)(=O)c2ccc(Br)cc2)C1)N1CCOCC1 (stereo not drawn) | -13.8 |
| Cc1ccc(-n2ncc3c2CC(C)(C)CC3NC(=O)CCCN2CCCC2=O)cc1 (stereo not drawn) | -1.21 |
| COC(=O)[C@H](CC(C)C)NC(=O)NCCCc1ccccc1 | 1.82 |
| N#CCCn1[nH]c(-c2ccccc2)cc1=O | 5.16 |
| COc1cc(C)ccc1OCc1cc(C(=O)N2CCC(c3ccc(F)cc3)C2)no1 (stereo not drawn) | -2.19 |
| CC(=O)Nc1cccc(NC(=O)C2CCCN2C(=O)Nc2cccc(F)c2)c1 (stereo not drawn) | 12.5 |
| CCOC(=O)c1ccc(N2Cc3ccccc3C2)cc1O | 3.14 |
| CCCC(C(=O)NC1CCCC1)N(Cc1ccccc1)C(=O)c1snc(C(N)=O)c1N (stereo not drawn) | -29.5 |
| Cc1cc(Oc2ccc(C(F)(F)F)cc2[N+](=O)[O-])c2c3c(c(=O)oc2c1)CCCC3 | 6.59 |
| O=C(C(=O)N1CCN(c2ccc(F)cc2)CC1)c1c[nH]c2ccccc12 | -5.69 |

| Compound | hERG current change (%, negative = inhibition) at 10uM [%] |
| --- | --- |
| CCC(C(=O)Nc1c2c(nn1C(C)(C)C)CS(=O)(=O)C2)c1ccccc1 (stereo not drawn) | -17.6 |
| COc1ccc(OC)c(CN2C(=O)c3ccccc3C2C(=O)NCc2cccnc2)c1 (stereo not drawn) | 0.718 |
| Cc1sc2ncnc(NCC(c3ccco3)N(C)C)c2c1C.O=C(O)C(=O)O (stereo not drawn) | -33.7 |
| CCn1nc(C)c(CNC(=O)Nc2ccccc2C(=O)OC)c1C | 13.5 |
| Cc1c(Cl)cccc1NC(=S)NNc1ncc(C(F)(F)F)cc1Cl | 11.7 |
| OCCC1CN(Cc2ccccn2)CCN1C1CCCC1 (stereo not drawn) | 9.91 |
| O=C(N/N=C/c1cccc(Br)c1)C1CC(=O)N(c2ccccc2)C1 (stereo not drawn) | 7.68 |
| COc1ccc(NC(=O)CSc2ccc(-c3ccco3)nn2)cc1 | 6.81 |
| COc1cccc(/C(C)=N/NC(=O)c2ccc(N(C)C)cc2)c1 | 3.12 |
| Cc1ccc(C(=O)Nc2nc(-c3ccccn3)cs2)cc1S(=O)(=O)N1CCOCC1 | -26.7 |
| CCOC(=O)c1sc(C)c2c(=O)n(Cc3ccc(Cl)cc3)c(C)nc12 | -2.13 |
| COC(=O)C[N+](C)(C)C/C=C\c1ccccc1.[Br-] | 38.9 |
| CCN1CCN(C(=O)c2ccc3c(=O)n(CCc4ccccc4)c(=O)[nH]c3c2)CC1 | -26.2 |
| CC1=NN(c2ccccc2)C(=O)C1C(=O)C(=O)Nc1ccc(F)cc1 (stereo not drawn) | 42.7 |
| CCc1ccc(NC(=O)CC2C(=O)N(c3cccc(OC)c3)C(=O)N2CCOC)cc1 (stereo not drawn) | 5.8 |
| O=C(NC(=S)Nc1nc(-c2ccccc2)cs1)c1cncc(Br)c1 | 5.05 |
| O=C(COC(=O)c1n[nH]c2ccccc12)NC(=O)NC1CCCCC1 | 3.46 |
| N#Cc1cccc(NC(=O)N2CCC(c3nc4c(nnn4Cc4cccc(Cl)c4)c(=O)[nH]3)CC2)c1 | 12 |
| S=C(NC1CCCCC1)NC1CC2CCC(C1)N2Cc1ccccc1 (stereo not drawn) | -33.4 |
| Cc1cccnc1NC(=O)CCc1c[nH]c2ccccc12 | 2.86 |
| Oc1ccc(-c2nnc(Nc3cccc(O)c3)c3ccccc23)cc1 | -7.99 |
